According to the supplement of paper PMC10369915:
The list shows a part of the results. No stated cut-off is given here; in the data, active = 3.2 or more and inactive = the rest. Only a few entries rise above the background.

Tests used:
Experiment in all cases: enrichment score (SH2-bound / input frequency) (ratio); bacterial display of known human phosphotyrosine sites (pTyr-Var adds point mutants) read by sequencing; higher = stronger binding; tyrosines were phosphorylated by kinases first
Details in all cases: peptide library: Human pTyr
SHP2 C-SH2 domain E139D = molecular target: SHP2 C-SH2 domain E139D
[1] = molecular target: SHP2 C-SH2 domain wild-type
SHP2 N-SH2 domain L43F = molecular target: SHP2 N-SH2 domain L43F
SHP2 N-SH2 domain T42A = molecular target: SHP2 N-SH2 domain T42A
SHP2 N-SH2 domain T52S = molecular target: SHP2 N-SH2 domain T52S
[2] = molecular target: SHP2 N-SH2 domain wild-type

Measured: enrichment score
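Further: displayed peptides selected on beads carrying the immobilized SH2 domain, with library peptides lacking any tyrosine serving as negative controls.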

IEKVVAIYDATKDKD [ABI1_HUMAN_455_YA]
inactive: SHP2 C-SH2 domain E139D 0.871 | [1] 0.785 | SHP2 N-SH2 domain L43F 0.888 | SHP2 N-SH2 domain T42A 0.933 | SHP2 N-SH2 domain T52S 0.927 | [2] 0.995

EAQAQREYSEFKRQQ [BECN1_HUMAN_233_YA]
inactive: SHP2 C-SH2 domain E139D 0.752 | [1] 0.813 | SHP2 N-SH2 domain L43F 0.827 | SHP2 N-SH2 domain T42A 0.781 | SHP2 N-SH2 domain T52S 0.751 | [2] 0.919

FTLRCPCALLCMCES [NegativeControl03_Ala]
inactive: SHP2 C-SH2 domain E139D 1.56 | [1] 1.58 | SHP2 N-SH2 domain L43F 1.49 | SHP2 N-SH2 domain T42A 1.78 | SHP2 N-SH2 domain T52S 2.02 | [2] 1.95

SEWRPFGYPRRRRPL [BCS1_HUMAN_181]
inactive: SHP2 C-SH2 domain E139D 0.671 | [1] 0.588 | SHP2 N-SH2 domain L43F 0.712 | SHP2 N-SH2 domain T42A 0.574 | SHP2 N-SH2 domain T52S 0.597 | [2] 0.545

SARIGDEYAEDSSDE [BOP1_HUMAN_122]
inactive: SHP2 C-SH2 domain E139D 1.38 | [1] 1.16 | SHP2 N-SH2 domain L43F 1.2 | SHP2 N-SH2 domain T42A 1.15 | SHP2 N-SH2 domain T52S 1.53 | [2] 1.79

NFANNCRAVQAEGCQ [NegativeControl06_Ala]
inactive: SHP2 C-SH2 domain E139D 0.788 | [1] 0.536 | SHP2 N-SH2 domain L43F 0.613 | SHP2 N-SH2 domain T42A 0.706 | SHP2 N-SH2 domain T52S 0.635 | [2] 0.613

IHTGEKPYECVQCGK [ZNF24_HUMAN_335]
inactive: SHP2 C-SH2 domain E139D 0.749 | [1] 0.734 | SHP2 N-SH2 domain L43F 0.641 | SHP2 N-SH2 domain T42A 0.802 | SHP2 N-SH2 domain T52S 1.29 | [2] 0.86

DSNSKKIYGSQPNFN [BMX_HUMAN_224]
inactive: SHP2 C-SH2 domain E139D 0.976 | [1] 0.959 | SHP2 N-SH2 domain L43F 0.798 | SHP2 N-SH2 domain T42A 0.817 | SHP2 N-SH2 domain T52S 0.769 | [2] 0.895

SQEVEVAYICSESSS [BLVRA_HUMAN_72]
inactive: SHP2 C-SH2 domain E139D 0.817 | [1] 0.76 | SHP2 N-SH2 domain L43F 1.05 | SHP2 N-SH2 domain T42A 1.03 | SHP2 N-SH2 domain T52S 1.23 | [2] 1.18

NFANNCRFVQAEGCQ [NegativeControl06_Phe]
inactive: SHP2 C-SH2 domain E139D 0.575 | [1] 0.539 | SHP2 N-SH2 domain L43F 0.547 | SHP2 N-SH2 domain T42A 0.604 | SHP2 N-SH2 domain T52S 0.547 | [2] 0.584

SHFECTCAVSIASTF [NegativeControl05_Ala]
inactive: SHP2 C-SH2 domain E139D 1.39 | [1] 1.19 | SHP2 N-SH2 domain L43F 1.28 | SHP2 N-SH2 domain T42A 1.32 | SHP2 N-SH2 domain T52S 1.58 | [2] 1.49

SRAMENQYSPTPGTD [C1QR1_HUMAN_644]
inactive: SHP2 C-SH2 domain E139D 0.676 | [1] 0.563 | SHP2 N-SH2 domain L43F 0.577 | SHP2 N-SH2 domain T42A 0.492 | SHP2 N-SH2 domain T52S 0.666 | [2] 0.633

KSKELPLYCSGGLRF [BECN1_HUMAN_352]
inactive: SHP2 C-SH2 domain E139D 1.18 | [1] 1.17 | SHP2 N-SH2 domain L43F 1.23 | SHP2 N-SH2 domain T42A 1.11 | SHP2 N-SH2 domain T52S 1.43 | [2] 1.31

GVRWAKLYSLVIWGC [BDKRB2_HUMAN_177]
inactive: SHP2 C-SH2 domain E139D 2.9 | [1] 2.78 | SHP2 N-SH2 domain L43F 2.24 | SHP2 N-SH2 domain T42A 2.37 | SHP2 N-SH2 domain T52S 2.51 | [2] 2.84

CFSKDKVFGDFFKVC [NegativeControl11_Phe]
inactive: SHP2 C-SH2 domain E139D 1.27 | [1] 1.22 | SHP2 N-SH2 domain L43F 1.25 | SHP2 N-SH2 domain T42A 1.21 | SHP2 N-SH2 domain T52S 1.3 | [2] 1.24

GVVGGEDYEEVDRYS [ZN598_HUMAN_306]
inactive: SHP2 C-SH2 domain E139D 0.743 | [1] 0.753 | SHP2 N-SH2 domain L43F 0.788 | SHP2 N-SH2 domain T42A 0.668 | SHP2 N-SH2 domain T52S 0.681 | [2] 0.684

AHGLLDPYNAFLSAV [CA2D3_HUMAN_924]
inactive: SHP2 C-SH2 domain E139D 0.795 | [1] 0.753 | SHP2 N-SH2 domain L43F 0.756 | SHP2 N-SH2 domain T42A 0.817 | SHP2 N-SH2 domain T52S 0.816 | [2] 0.739

SLEKHSWYHGPVSRN [ABL1_HUMAN_128]
inactive: SHP2 C-SH2 domain E139D 0.911 | [1] 1.08 | SHP2 N-SH2 domain L43F 0.85 | SHP2 N-SH2 domain T42A 0.807 | SHP2 N-SH2 domain T52S 1.02 | [2] 1.07

ALVLDCHYPEDEVGQ [C1QBP_HUMAN_188]
inactive: SHP2 C-SH2 domain E139D 1.24 | [1] 1.05 | SHP2 N-SH2 domain L43F 1.51 | SHP2 N-SH2 domain T42A 1.2 | SHP2 N-SH2 domain T52S 1.21 | [2] 1.26

FDFSGWKADHAAATP [NegativeControl02_Ala]
inactive: SHP2 C-SH2 domain E139D 0.684 | [1] 0.833 | SHP2 N-SH2 domain L43F 0.797 | SHP2 N-SH2 domain T42A 0.702 | SHP2 N-SH2 domain T52S 0.825 | [2] 0.721

EAQYQREYSEFKRQQ [BECN1_HUMAN_233]
inactive: SHP2 C-SH2 domain E139D 0.826 | [1] 0.631 | SHP2 N-SH2 domain L43F 0.687 | SHP2 N-SH2 domain T42A 0.696 | SHP2 N-SH2 domain T52S 0.764 | [2] 0.667

CSTPQSQYYLAEKHL [BTK_HUMAN_344]
inactive: SHP2 C-SH2 domain E139D 1.13 | [1] 0.835 | SHP2 N-SH2 domain L43F 1.02 | SHP2 N-SH2 domain T42A 1.11 | SHP2 N-SH2 domain T52S 1.19 | [2] 1.45

DPEEDEEYYRKQLSY [ZO1_HUMAN_1354]
inactive: SHP2 C-SH2 domain E139D 0.984 | [1] 1.09 | SHP2 N-SH2 domain L43F 1.06 | SHP2 N-SH2 domain T42A 1.1 | SHP2 N-SH2 domain T52S 1.22 | [2] 1.09

IAQGLRLYRPHLASE [BTK_HUMAN_617]
inactive: SHP2 C-SH2 domain E139D 1.49 | [1] 1.03 | SHP2 N-SH2 domain L43F 1.29 | SHP2 N-SH2 domain T42A 1.29 | SHP2 N-SH2 domain T52S 1.71 | [2] 1.87

IEKVVAIYDYTKDKD [ABI1_HUMAN_455]
inactive: SHP2 C-SH2 domain E139D 1.05 | [1] 0.802 | SHP2 N-SH2 domain L43F 0.854 | SHP2 N-SH2 domain T42A 0.851 | SHP2 N-SH2 domain T52S 0.984 | [2] 0.703

ESSSHEDYIRQFLNA [BLVRA_HUMAN_83]
inactive: SHP2 C-SH2 domain E139D 0.559 | [1] 0.673 | SHP2 N-SH2 domain L43F 0.843 | SHP2 N-SH2 domain T42A 0.629 | SHP2 N-SH2 domain T52S 0.715 | [2] 0.683

VSPSPTTYRMFRDKS [BCR_HUMAN_360]
inactive: SHP2 C-SH2 domain E139D 1.11 | [1] 0.865 | SHP2 N-SH2 domain L43F 1.47 | SHP2 N-SH2 domain T42A 0.748 | SHP2 N-SH2 domain T52S 0.924 | [2] 1

EERKEDQYMKMTVCL [BLVRA_HUMAN_198]
active: SHP2 N-SH2 domain T42A 4.08
inactive: SHP2 C-SH2 domain E139D 1.75 | [1] 1.28 | SHP2 N-SH2 domain L43F 1.41 | SHP2 N-SH2 domain T52S 1.31 | [2] 1.84

IHTGEKPYACLECGK [ZN787_HUMAN_122]
inactive: SHP2 C-SH2 domain E139D 1.17 | [1] 1.4 | SHP2 N-SH2 domain L43F 0.796 | SHP2 N-SH2 domain T42A 1.36 | SHP2 N-SH2 domain T52S 0.873 | [2] 0.998

DPEEDEEYARKQLSA [ZO1_HUMAN_1354_YA]
inactive: SHP2 C-SH2 domain E139D 1.39 | [1] 0.974 | SHP2 N-SH2 domain L43F 0.917 | SHP2 N-SH2 domain T42A 1.3 | SHP2 N-SH2 domain T52S 0.965 | [2] 1.26

SHFECTCFVSIASTF [NegativeControl05_Phe]
inactive: SHP2 C-SH2 domain E139D 1.61 | [1] 1.48 | SHP2 N-SH2 domain L43F 1.47 | SHP2 N-SH2 domain T42A 1.62 | SHP2 N-SH2 domain T52S 1.84 | [2] 2.01

FFKVPELYEIHKEFY [BCR_HUMAN_554]
inactive: SHP2 C-SH2 domain E139D 1.71 | [1] 2.1 | SHP2 N-SH2 domain L43F 1.59 | SHP2 N-SH2 domain T42A 1.7 | SHP2 N-SH2 domain T52S 1.64
active: [2] 3.21

DSERDELYAQWGKGL [BUD13_HUMAN_494]
inactive: SHP2 C-SH2 domain E139D 0.9 | [1] 0.727 | SHP2 N-SH2 domain L43F 0.645 | SHP2 N-SH2 domain T42A 0.761 | SHP2 N-SH2 domain T52S 0.839 | [2] 0.735

MLVSIDRYLALVKTM [BKRB2_HUMAN_156]
active: SHP2 N-SH2 domain T52S 3.22 | [2] 3.59
inactive: SHP2 C-SH2 domain E139D 2.86 | [1] 3.03 | SHP2 N-SH2 domain L43F 2.57 | SHP2 N-SH2 domain T42A 2.73

ARIIDSEYTAQEGAK [BLK_HUMAN_389]
inactive: SHP2 C-SH2 domain E139D 0.714 | [1] 0.75 | SHP2 N-SH2 domain L43F 0.74 | SHP2 N-SH2 domain T42A 0.536 | SHP2 N-SH2 domain T52S 0.616 | [2] 0.455

EHSDSEMYVMPAEEN [BLNK_HUMAN_84]
inactive: SHP2 C-SH2 domain E139D 1.31 | [1] 1.1 | SHP2 N-SH2 domain L43F 0.809 | SHP2 N-SH2 domain T42A 1.08 | SHP2 N-SH2 domain T52S 1.01 | [2] 1.21
